The other results are listed elsewhere or left out.
B1: chr16:37881740:37881741:+_ENSMUSG00000034158_ENSMUST00000078717|mus_mus|FALSE|FALSE (ssRNA)
RNA: GGGAGUUCUACAGUCCGACGAUCAGACCGAUCAACUGAAUUUUGAACUGCCAUUCACAAUAAAUUACACUCAAAGAAUCUAAACAGGGAACUGGACUCAUUCCUGCCGAAUGUGUAGACAGAAUGCAAAACCUUUCUUUCACACAACAGAGGAUUGAGCAUCA
B2: chr1:46159212:46159213:+_ENSG00000159596_ENST00000372025|hu_mus|FALSE|FALSE (ssRNA)
RNA: GGGAGUUCUACAGUCCGACGAUCUCUGAUCCCUCCCAAGAAAGCUAGGAAACCGGCUCCAUAAGCCAUCUGAGUGAAAGCUAGGACGGGGAUAUAAGACUUUGUUAUUACCAUGAGAAGUGGGGGAGCAGUAAAGGGGAUUAACAACAGAGGAUUGAGCAUCA
B3: 68524799_68524919_2729_3pUTR_ENSG00000110090_ENST00000265641|human|control|control (ssRNA)
RNA: GGGAGUUCUACAGUCCGACGAUCCCACAACCCUACUAAUUCCUUCAUUAACUCAACAAGAUUUGCAUCCCUUAAUAAAUCCAAGCCGAUGCGGAGACAUCAGGGGAGACUUUAUCAGAUGUCCCCCAAGGGAGGGCAAGUCUGCAACAGAGGAUUGAGCAUCA
B4: 10576428_10576548_1610_3pUTR_ENSMUSG00000024668_ENSMUST00000025570|mouse|control|control (ssRNA)
RNA: GGGAGUUCUACAGUCCGACGAUCUGUGAGGUAACUGAUGCUGAUUCCCGCUUCCCUCCCUGGCCAGGGAACUUUUUCCUAUAGCUCUUGUAGUUACCCACCCAGGCUUCUCAGUUCUGGCCUGCUUUCUCUAGCCAACACUCACAACAGAGGAUUGAGCAUCA
B5: chr4:17845017:17845018:+_ENSG00000109805_ENST00000514176|hu_mus|hu_hu_hu_mus_False|98_98 (ssRNA)
RNA: GGGAGUUCUACAGUCCGACGAUCGCUCUCUUAACUUGAUCUUCAUUUAAGGAACUCUGCAAGGUUAAGUUUACUUUUCUGUAGCGCAGCUGUUUUGGCUCGUCUGGGUAAUCUCAUCUUCAUUUCUGAUGGUGGUUCAUGAUCCAACAGAGGAUUGAGCAUCA
B6: chr3:108421708:108421709:+_ENSMUSG00000040389_ENSMUST00000051145|mus_hu|motif|central (ssRNA)
RNA: GGGAGUUCUACAGUCCGACGAUCGCCAAGAAGCACUUCGCUUUCUGUAAUUUCUUCUCCAGUUGCUUUACUCUGACAAAAUUCGGCACAGCAUUCAUAAAGCAGGCCUUUCAUUACAAGCUGAAAUAAACGAUUGUUACUAGCCAACAGAGGAUUGAGCAUCA
B7: chr15:30001172:30001173:-_ENSG00000104067_ENST00000400011|hu_mus|FALSE|FALSE (ssRNA)
RNA: GGGAGUUCUACAGUCCGACGAUCUGGUGGUCUGAAAGUUGCUGGUUUACUCUGAGAUGGGGGUGGGUCUGGUUUGGACAUAUAUGAGUUCUGAAAAUCCAAUGAUACUGAGUUGCCUUCACCCUGGGCGCCCUUGGAAUGUAUCAACAGAGGAUUGAGCAUCA
B8: chr15:43486971:43486972:+_ENSG00000166946_ENST00000300213|hu_mus|FALSE|FALSE (ssRNA)
RNA: GGGAGUUCUACAGUCCGACGAUCGAGCGCCUUAAUUCUGUUCAUGCAAUGGUCAACGGCAUUAAUGAGUAAAGGAAUCCAGCUAUCUCCUGGGUGGGGGCUCACGUGACUUGCUUUUGUAAUUUCAAGAGCCUUUAUUAAAACCAACAGAGGAUUGAGCAUCA
B9: chr5:21252845:21252846:+_ENSMUSG00000029017_ENSMUST00000030882|mus_hu|FALSE|FALSE (ssRNA)
RNA: GGGAGUUCUACAGUCCGACGAUCUGUUUGCAACCAUGAGACAGAUUGUAUCUGGAUGUGCCCAACCAACAGCUUCAACAGCUAUUGCAAGGUGCGCCAAAGGCAUCUUGUCAUCCCUCACACGAAUCUCACUUCCUGUGAAUUCAACAGAGGAUUGAGCAUCA
B10: chr4:144460044:144460045:+_ENSG00000153147_ENST00000283131|hu_mus|hu_hu_hu_mus_False|28_98 (ssRNA)
RNA: GGGAGUUCUACAGUCCGACGAUCACGGUCCAUAGCCUGAAGAUCUACUUGCGGAUUCCAAUCUGAGUCAUAUAAAAUGACUACAUCAGCAGUUGCAAGAUUGAUGCCAAGACCACCAGCACGUGUGCUUAGCAUAAAUACAAACAACAGAGGAUUGAGCAUCA
B11: chr2:65473824:65473825:+_ENSG00000138071_ENST00000260641|hu_mus|FALSE|FALSE (ssRNA)
RNA: GGGAGUUCUACAGUCCGACGAUCGUUUUUGGUUGGAUUCAUGGGAGGUUCUGUAAGUAAAAUCUUGCAGUUUCUGGUGUCUAUAUUGAGUUUCUCUGGUCCAAAUGUGUAGUCCCACAGGUGCUUCAUGUCAUCCCAAUUCCGCAACAGAGGAUUGAGCAUCA
B12: chr1:39494564:39494565:+_ENSG00000168653_ENST00000372967|hu_hu|hu_hu_hu_mus_True|8_98 (ssRNA)
RNA: GGGAGUUCUACAGUCCGACGAUCAUGCAUUCGCCUCAUCGUUUUCUACCGAAGCAAGCACUCUUCGAAGUCAUCGAACUCUAUCUUGCACUCCUUUUUCGCCCGGGUCCCACCGAUCCCGUGUGCACAUUCUAUCCACUCUUUCAACAGAGGAUUGAGCAUCA
B13: chr5:138658563:138658564:+_ENSG00000015479_ENST00000502499|hu_mus|FALSE|FALSE (ssRNA)
RNA: GGGAGUUCUACAGUCCGACGAUCAUCUUUUUUCACAGCUUUAUCUGAAGGCUCCUUUUUCCCAUCAGAAGAUACAUCCCCUAAAUUAGCAAGAUCGGUCUCAUCGCCCACUGAACUACCACUUUCUAGUAGUGCUGCAGCUUCCAACAGAGGAUUGAGCAUCA
B14: chr9:111175386:111175387:+_ENSMUSG00000046785_ENSMUST00000060711|mus_hu|motif|central (ssRNA)
RNA: GGGAGUUCUACAGUCCGACGAUCUUCCGUUAGUAAAGUCUGAAAUUCAGGUCGCCUAACGCCUCUGGUCUUAAUCAAAACGGUCCAUUCGGAUAUGGUAUUUAUGAUCUGAUUAACAUCUACAUCAUAGGAGCUCAACAGUUCCAACAGAGGAUUGAGCAUCA

Molecular target: T1, UNK ZnF1-3 (human, UniProt Q9C0B0 31-174)
T1 sequence: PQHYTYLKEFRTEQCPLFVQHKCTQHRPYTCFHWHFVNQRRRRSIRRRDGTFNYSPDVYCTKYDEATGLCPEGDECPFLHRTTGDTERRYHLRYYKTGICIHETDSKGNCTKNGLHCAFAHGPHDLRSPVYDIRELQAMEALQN
Assay: nsRBNS (natural sequence RNA bind-n-seq); RBNS binding buffer (assumed for nsRBNS): 25 mM Tris pH 7.5, 150 mM KCl, 3 mM MgCl2, 0.01% Triton X-100, 500 ug/ml BSA, 20 U/ml SUPERase-In, 4 C; UNK is unkempt and MSI1 is Musashi-1; names of the RNAs are library labels; protein concentration not given here; high values mean tight binding

| Binder | binding signal [enrichment R] |
| --- | --- |
| B1 | 1.06 |
| B2 | 1.53 |
| B3 | 1.46 |
| B4 | 0.713 |
| B5 | 0.419 |
| B6 | 1.11 |
| B7 | 0.981 |
| B8 | 1.47 |
| B9 | 0.644 |
| B10 | 0.843 |
| B11 | 0.607 |
| B12 | 0.62 |
| B13 | 0.856 |
| B14 | 0.701 |

Reference: paper PMC12136788
